The RNAGym collection of RNA variant scans (doi:10.1093/nar/gkz1192)
Read counts are not given, so values of variants with three or more changes are uncertain.

B1: CPEB3 Ribozyme (parent)
chain: UAACAGGGGGCCACAGCAGAAGCGUUCACGUCGCAGCCCCUGUCAGAUUCUGGUGAAUCUGCGAAUUCUGCUGUAUAUCUC

Variants of: B1
Assay: self-cleavage, relative activity (ratio to wild type); higher = more cleavage; in vitro, sequencing
Outline: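 After error-prone PCR and barcoding, CPEB3 ribozyme mutant libraries were transcribed with T7 RNA polymerase at 37°C for 5 hours, then given 15 min with DNase I before an EDTA stop, and they cleaved during both steps. Reverse transcription with template switching preceded Illumina sequencing. Relative activity divides a variant's cleaved/total read fraction by the unmutated ribozyme's. At least 5 reads were required per variant, and three batches were averaged.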

| Variant | self-cleavage |
| --- | --- |
| UAACAGGGGGCCACAGCAGAAGCGUUCACGUCGCAGACCCUGUCAGAUUCUAGAGAGCCUGCGAAUUCUGCUGUACAUCUC [C37A G52A U54A A57G U58C U76C] | 0.05 |
| UAACAGGGGGCCACAGCAGAAGCGUUCACGUCGCAGACCCAGUCUGAUCCUGGUGAAUCUGCGAAUUCUGCAGCAUAUCUU [C37A U41A A45U U49C U72A U74C C81U] | 0.02 |
| UAACAGGGGGCCACAGCAGAAGCGUUCACGUCGCAGACCCUGCCAGAUUCUGGUGAAUCUGCGAAUUCUGCUGUAUAACUC [C37A U43C U78A] | 0.1 |
| UAACAGGGGGCCACAGCAGAAGCGUUCACGUCGCAGACCCUGUCAGAUCCUGGUGAAUCUGCGAAUUCUGCUGUAUUUCUC [C37A U49C A77U] | 0.57 |
| UAACAGGGGGCCACAGCAGAAGCGUUCACGUCGCAGACCCUGUCAGAUUCUGGACAAUCAGCGAAUUCUGCUGUAUAUCUC [C37A U54A G55C U60A] | 0.14 |
| UAACAGGGGGCCACAGCAGAAGCGUUCACGUCGCAGACCCUGUCAGAUUCUGGUGAAUCUGCGAAUUCUGCUGUAUAACCC [C37A U78A U80C] | 0.25 |
| UAACAGGGGGCCACAGCAGAAGCGUUCACGUCGCAGGUCCUGCCAGAUUCUGGAGAAUCUGCGAAUUCAGCUGUAUAUCUG [C37G C38U U43C U54A U69A C81G] | 0.07 |
| UAACAGGGGGCCACAGCAGAAGCGUUCACGUCGCAGGCCCUGUCAGAUUCUGGUGAAUCUGGGAAUUCUGCUGUAUACCUC [C37G C62G U78C] | 0.11 |
| UAACAGGGGGCCACAGCAGAAGCGUUCACGUCGCAGGCCCUGUCAGAUUCCGGUGAAUUUGCGAAUUCUGCUGUAUAUCUC [C37G U51C C59U] | 0.41 |
| UAACAGGGGGCCACAGCAGAAGCGUUCACGUCGCAGGCCCUGUCAGAUUCUGGAGAUUCUGCGAAUUCUGCUGUAUAUCUC [C37G U54A A57U] | 0.36 |
| UAACAGGGGGCCACAGCAGAAGCGUUCACGUCGCAGGCCCUGUCAGAUUCUGGUGAAUCCGCGAAUUCUGCUGUAUAGCUC [C37G U60C U78G] | 0.12 |
| UAACAGGGGGCCACAGCAGAAGCGUUCACGUCGCAGUCCCUGUCAGAUUCUGGUGAGUCUGCGAAUUCUGCUGUAUACCUC [C37U A57G U78C] | 0.5 |
| UAACAGGGGGCCACAGCAGAAGCGUUCACGUCGCAGUCAUUGUCAGAUUCUGGUGAAUCUGCGAAUUCUGCUGUAUACCUC [C37U C39A C40U U78C] | 0.25 |
| UAACAGGGGGCCACAGCAGAAGCGUUCACGUCGCAGUCCGUGUCAGAUUCUGGUGAGUCUGCGAAUUCUGCUGUAUAUCUC [C37U C40G A57G] | 0.15 |
| UAACAGGGGGCCACAGCAGAAGCGUUCACGUCGCAGUCCCCGUCAGAUUCUGGUGAAUCAGCGAAUUCUGCUGUAUAUCUC [C37U U41C U60A] | 0.24 |
| UAACAGGGGGCCACAGCAGAAGCGUUCACGUCGCAGUCCCCGUCAGAUUCUGGUGAAUCUGCGAAUUCUGCUGUAUAUCAC [C37U U41C U80A] | 1.1 |
| UAACAGGGGGCCACAGCAGAAGCGUUCACGUCGCAGUCCCUGUCAGAUCCUGGUGAAUCUGCGGAUUCUGCUGUAUAUCUC [C37U U49C A64G] | 0.19 |

| Variant | self-cleavage |
| --- | --- |
| UAACAGGGGGCCACAGCAGAAGCGUUCACGUCGCAGUCCCUGUCAGAUUCCGGUGAAUCUGCGAAUUCUGCUGCAUAUCUC [C37U U51C U74C] | 1.22 |
| UAACAGGGGGCCACAGCAGAAGCGUUCACGUCGCAGUCCCUGUCAGAUUCUGGAGAAUCUGCGAAUUCUGAUGUAUAUCUC [C37U U54A C71A] | 0.18 |
| UAACAGGGGGCCACAGCAGAAGCGUUCACGUCGCAGUCCCUGUCAGAUUCUGGUGAACCUGCGAAUGCUGCGGUAAAUCUC [C37U U58C U67G U72G U76A] | 0.06 |
| UAACAGGGGGCCACAGCAGAAGCGUUCACGUCGCAGUCCCUGUCAGAUUCUGGUGAAUCUGCGAACUCUGCUGUAUAUCCC [C37U U66C U80C] | 0.12 |
| UAACAGGGGGCCACAGCAGAAGCGUUCACGUCGCAGCACCUGUCCGGUUCUGGUGGAUCUGCGAAUUCUGCUGUAUAUCUC [C38A A45C A47G A56G] | 0.17 |
| UAACAGGGGGCCACAGCAGAAGCGUUCACGUCGCAGCACCUGUCAGGUCCUGGUGAAUCCGCGAAUUCUGCUUUAUAUCUC [C38A A47G U49C U60C G73U] | 0.02 |
| UAACAGGGGGCCACAGCAGAAGCGUUCACGUCGCAGCACCUGUCAGAUUCUGGUGAGUCUGCGAAUUCUGCUGUAUAUCCC [C38A A57G U80C] | 0.25 |
| UAACAGGGGGCCACAGCAGAAGCGUUCACGUCGCAGCACGCGUCAGAUUCUGGUGAAUCCGCGAAUUCUGCUGUAUAUCUC [C38A C40G U41C U60C] | 0.06 |
| UAACAGGGGGCCACAGCAGAAGCGUUCACGUCGCAGCACCUGUUAGAUCCUGGUGAAUCUGCGAAUUCUGCUGUAUAUCUC [C38A C44U U49C] | 0.07 |
| UAACAGGGGGCCACAGCAGAAGCGUUCACGUCGCAGCACCUGCCAGAUUCUGGUGAAUCUGCGAAUUCUGCUGUAUAACUC [C38A U43C U78A] | 0.16 |
| UAACAGGGGGCCACAGCAGAAGCGUUCACGUCGCAGCACCUGUCAGAUUCUGGUGAACCUGCGAAUUCAGCUGUAUAUCUC [C38A U58C U69A] | 0.09 |
| UAACAGGGGGCCACAGCAGAAGCGUUCACGUCGCAGCACCUGUCAGAUUCUGGUGAAUCUGCGAACUCUGCUGUGUAUCUC [C38A U66C A75G] | 0.14 |
| UAACAGGGGGCCACAGCAGAAGCGUUCACGUCGCAGCGCCUGUCAGAUUCUGGUGAAUCUGCGAAUUCUGCUGUGUAUCCC [C38G A75G U80C] | 0.07 |
| UAACAGGGGGCCACAGCAGAAGCGUUCACGUCGCAGCGCCUGUCAGAUUCUGGUGAAUCUGAGAAUUCUGCGGUAUUUCUC [C38G C62A U72G A77U] | 0.22 |
| UAACAGGGGGCCACAGCAGAAGCGUUCACGUCGCAGCUCCUGUCGGAUUCUGGUGAAUCUGCGAGUUCUGCUGUAUAUCUC [C38U A45G A65G] | 0.21 |
| UAACAGGGGGCCACAGCAGAAGCGUUCACGUCGCAGCUCCUGUCGGAUUCUGGUGAAUCUGUGAAUUCUGCAGUAUAUCUC [C38U A45G C62U U72A] | 0.16 |
| UAACAGGGGGCCACAGCAGAAGCGUUCACGUCGCAGCUCCUGUCAGGUUCAGGUGAAUCUGCGGAUUCUGCUGCAUAUCUC [C38U A47G U51A A64G U74C] | 0.86 |
